Data on two molecules can be found in patent US20180194862A1 (AbbVie / Abbott, published 2018).

In assay [1] the target is T1, cynomolgus mesothelin (cynomolgus).
T1 construct: also called cynoMSLN; Cyno MSLN
Put plainly: SPR. A general note: SPR reads the build-up and loss of mass on a sensor chip optically.

Assay [2] has as its target T2, soluble form of the extracellular domain of cynomolgus (cyno) CD40 (Creative BioMart) (cynomolgus, UniProt G7PG38 21-193).
T2 construct: extracellular domain; also called Cynomolgus CD40
Briefly: SPR.

Assay [3] addresses T3, human CD40 on cells (HEK293 stable transfectants, HEK-Blue CD40 cells, human B cells, monocytic cells, … (human, UniProt P25942 21-277)). Briefly: cell-based or functional assay.
Assay [4] concerns the target T4, human mesothelin (human, UniProt Q13421 296-580, limits assumed).
T4 construct: also called Human MSLN
Briefly: SPR.

The target in assay [5] is T5, soluble form of the extracellular domain of human CD40 (Creative BioMart) (human, UniProt P25942 fragment).
T5 construct: Bought
Put plainly: SPR.

Assay [6] deals with CD40 (binding assays of Example 4, Table 4-2). Put plainly: antigen binding, format not stated.
Chain of CD40 (binding assays of Example 4, Table 4-2) (P25942 21-277): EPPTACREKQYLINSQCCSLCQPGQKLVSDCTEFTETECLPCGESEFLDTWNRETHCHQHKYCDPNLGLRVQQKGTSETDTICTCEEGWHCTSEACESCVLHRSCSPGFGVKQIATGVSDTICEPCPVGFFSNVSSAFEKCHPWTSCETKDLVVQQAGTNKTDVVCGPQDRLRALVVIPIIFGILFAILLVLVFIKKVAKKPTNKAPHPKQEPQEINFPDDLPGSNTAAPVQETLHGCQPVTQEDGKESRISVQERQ
For assay [7], the target named is T6, MSLN (binding assays of Example 4, Table 4-2) (Homo sapiens (Human), UniProt Q13421 296-598).
T6 construct: also called mesothelin
Briefly: antigen binding, format not stated.

The target of assay [8] is T3, human CD40 on cells (HEK293 stable …). Put plainly: cell-based or functional assay. This is another data set of the same source.
The target is the same in assay [9]. Briefly: CD40 occupancy on B cells, -MSLN (n = 3).

In general, Kd refers to the equilibrium constant for the complex coming apart. Higher therefore signals a looser complex. The term koff denotes the first-order rate constant of dissociation. The low end stands for slow dissociation, the high end for fast dissociation. The term kon denotes the rate constant with which the complex forms. A higher kon goes with fast association. The term EC50 denotes the midpoint of the concentration-response curve.

B1: V6-6 (bispecific antibody, IgG1)
chain: EVQLQESGPGLVKPSETLSLTCTVSGYSITSNYYWNWIRQPPGKGLEWMGYIRYDGSNNYNPSLKNRVTISRDTSKNQFSLKLSSVTAADTAVYYCARLDYWGQGTTVTVSSGGGGSGGGGSGGGGSGGGGSGGGGSGGGGSDAQMTQSPSSLSASVGDRVTITCRSSQSLENTNGNTFLNWFQQKPGKAPKLLIYRVSNRFSGVPSRFSGSGSGTDFTLTISSLQPEDFATYYCLQVTHVPFTFGQGTKLEIKR[human IgG1 Fc with C220S V263L (EU numbers) not written out]GGGGSGGGSGGGSGGGGSSYELTQPPSVSVAPGQTARISCSGDKLGDKYASWYQQKPGQAPVLVIYQDNRRPSGIPERFSGSNSGNTATLTISGTQAEDEADYYCQAWDSDTYVFGGGTKLTVLGQGGGGSGGGGSGGGGSGGGGSGGGGSGGGGSEVQLVQSGAEVKKPGASVKVSCKASGDTFKRYYVHWVRQAPGQGLEWMGIINPSGVSTTYAQKFQGRVTMTRDTSTSTVYMELSSLRSEDTAVYYCAEVRGSGFNYFGMDVWGQGTLVTVSS
notes: scFv-Fc-scFv, IgG1 V263L
On to B1, for which the Kd was 0.87 nM in assay [1], 9.5 nM in assay [2], 2.4 nM in assay [4] and 13 nM in assay [5]. Further, the off-rate constant (koff) was 5.3e-05 s⁻¹ in [1], 0.013 s⁻¹ in assay [2], 3e-05 s⁻¹ in assay [4] and 0.014 s⁻¹ in assay [5]. Further, the association rate constant (kon) in assay [1] was 61000 M⁻¹ s⁻¹; in [2], 1.4e+06 M⁻¹ s⁻¹; in assay [4], 13000 M⁻¹ s⁻¹; in assay [5] it was 1.1e+06 M⁻¹ s⁻¹. Besides, the “Max. IL-12p70, DC co-cultured with HEK293 expressing mesothelin” value in assay [3] turned out to be 300 pg/mL.

B2: B40 (bispecific antibody, IgG1)
chain: EVQLQESGPGLVKPSETLSLTCTVSGYSITSNYYWNWIRQPPGKGLEWMGYIRYDGSNNYNPSLKNRVTISRDTSKNQFSLKLSSVTAADTAVYYCARLDYWGQGTTVTVSSDLSGGGGSGGGGSGGGGSGGGGSTGDAVMTQTPLSLSVTPGQPASISCRSSQSLENTNGNTFLNWYLQKPGQSPQLLIYRVSNRFSGVPDRFSGSGSGTDFTLKISRVEAEDVGVYYCLQVTHVPFTFGQGTKLEIKRLE[human IgG1 Fc with C220S V273E (EU numbers) not written out]VDGASSPVNVSSPSVQDISYELTQPPSVSVSPGQTASITCSGDKLGDKYASWYQQKPGQSPVLVIYQDNRRPSGIPERFSGSNSGNTATLTISGTQAMDEADYYCQAWDSDTYVFGTGTKVTVLGQDLSGGGGSGGGGSGGGGSGGGGSTGEVQLVQSGAEVKKPGASVKVSCKASGDTFKRYYVHWVRQAPGQGLEWMGIINPSGVSTTYAQKFQGRVTMTRDTSTSTVYMELSSLRSEDTAVYYCAEVRGSGFNYFGMDVWGQGTLVTVSS
notes: scFv-Fc-scFv: huAb9-5 (VH-VL), huIgG1 V273E, HuAM15 (VL-VH)
B2 came in with an EC50 in [6] of 0.4 µg/mL. In assay [7], this molecule had an EC50 of 9 µg/mL. Moreover, in [8], the “B-cell CD23 EC50, +MSLN” value stood at 0.12 nM; the “B-cell CD23 EC50, -MSLN” value was 10 nM; the “B-cell CD86 EC50, +MSLN (HEK293 expressing mesothelin)” value was 0.035 nM; the “B-cell CD86 EC50, -MSLN” value turned out to be 1.4 nM. For the same molecule, in assay [8], the “B-cell proliferation EC50, +MSLN” value was 0.33 nM; the “B-cell proliferation EC50, -MSLN” value amounted to 22 nM; the “moDC CD83 EC50, +MSLN” value was found to be 0.15 nM; the “moDC IL-12p70 EC50, +MSLN” value amounted to 0.44 nM. Moreover, in assay [9], the response was half-maximal at 5 nM (EC50).
